According to the supplement of paper PMC4604168 (melanoma cell lines):
The list shows a part of the results. Single values are uncertain, as repeats are few or missing.

system: UACC257; experiment: cell count relative to DMSO control; melanoma cells; higher = more viable cells; settings: library dose: standard library concentration; 72 h
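Further: cells treated in 1,536-well plates, then fixed and DAPI-stained, with nuclei counted from automated high-throughput microscope images.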

| SMILES | cell count |
| --- | --- |
| C[C@@H]1CCN(C(=O)CC#N)C[C@@H]1N(C)c1ncnc2[nH]ccc12 + Oc1nc(-c2ccc(C(F)(F)F)cc2)nc2c1CSCC2 [XAV939] (first compound 5 µM, partner dose 10 µM) | 81.6% |
| O=C(Nc1cccc(Cl)c1)Nc1ncc(CCNc2ncnc3ccsc23)s1 + CCCCCCCCCCCC1=C(O)C(=O)C=C(O)C1=O [Embelin] (first compound 0.004 µM, partner dose 6 µM) | 58.3% |
| COc1cc(Nc2ncc(F)c(Nc3ccc4c(n3)NC(=O)C(C)(C)O4)n2)cc(OC)c1OC [Tamatinib] + O=C(Nc1ccccc1)c1cc([N+](=O)[O-])ccc1Cl [GW9662] (first compound 2 µM, partner dose 10 µM) | 60.2% |
| Cn1cncc1[C@@](N)(c1ccc(Cl)cc1)c1ccc2c(c1)c(-c1cccc(Cl)c1)cc(=O)n2C [tipifarnib] + N#Cc1c(O)c2c(-c3ccc(-c4ccccc4O)cc3)csc2[nH]c1=O [A769662] (first compound 0.05 µM, partner dose 10 µM) | 110% |
| O=C(Nc1cccc(Cl)c1)Nc1ncc(CCNc2ncnc3ccsc23)s1 + COc1cc(N2CCC(N3CCN(C)CC3)CC2)ccc1Nc1ncc(Cl)c(Nc2ccccc2S(=O)(=O)C(C)C)n1 [NVP-TAE684] (first compound 0.004 µM, partner dose 0.4 µM) | 84.5% |
